Measurements taken from patent US20250179172A1 (HAINAN SIMCERE ZAIMING PHARMACEUTICAL, published 2025).

B1: S005-NB144-43 VHH-hFc (Fc fusion)
chain: QVQLVESGGGLVQPGGSLRLSCAASGFTWDYYAIGWFRQAPGKEREGVSCIDSSGGSINYLDSVKGRFTVSRDNAKNTVYLQMDSLKPEDTAIYYCAASSYWDCAVPDTGSPKTGHLESYFGSWGQGTQVIVSS[human IgG1 Fc with changes not printed]
notes: VHH fused to human IgG1 Fc; no linker stated; also called S002-NB144-43
B2: S005-NB144-73 VHH-hFc (Fc fusion)
chain: EVQVVESGGGLVQAGGSLRLSCAASGDTICISAMYWYRQAPGKAREMVAAITSGGSTYYEDSVMGRFTIFRENAKNTVYLQMNSLKPEDTAVYYCNADIAGHNCSGYLKEYWGQGTQVTVSA[human IgG1 Fc with changes not printed]
notes: VHH fused to human IgG1 Fc; no linker stated; also called S002-NB144-73
B3: S005-NB145-3 VHH-hFc (Fc fusion)
chain: QVQLVESGGGLVQPGGSLRLSCAASGFSLDYYAIGWFRQAPGKEREGVSYISPSDGRTYYADSVKGRFTISRDNAKNTVYLQMNSLKPEDTAVYYCATDWGSTSFDYGLKLSPTQYGYWGQGTQVTVSS[human IgG1 Fc with changes not printed]
notes: VHH fused to human IgG1 Fc; no linker stated
B4: S005-NB145-92 VHH-hFc (Fc fusion)
chain: EVQLVESGGGLVQPGGSLRLSCAASGFSLDYYAIGWFRQAPGKEREGVSYISASDGSTYYADSVKGRFTISRDNAKNTVYLQMNSLKPEDTAVYYCATDWGSGSFNYGLRLSPTQYDYWGQGTQVTVSS[human IgG1 Fc with changes not printed]
notes: as for B3
B5: S005-NB145-22 VHH-hFc (Fc fusion)
chain: QVQLVESGGGLVQAGGSLRLSCAVSGRTLSTVVVGWFRQTPGREREFVAVSRSGGATGYADSVKDRFTISRDNAKNTVALQMNSLKPEDTAVYYCAGRGSGLYGSSWYNQIQEYDGWGQGTQVTVSS[human IgG1 Fc with changes not printed]
notes: as for B3
B6: S005-NB145-74 VHH-hFc (Fc fusion)
chain: EVQLVESGGGLVQAGGSLRLSCAASESTFSITAMGWYRQAPGKQRELVAAITSPGGSTNYADSVKGRFTISRDNAKNTMLLQMNSLKPEDTAVYYCNADINHGSGYYTVSWGQGTQVTVSS[human IgG1 Fc with changes not printed]
notes: as for B3
B7: S005-NB144-4 VHH-hFc (Fc fusion)
chain: EVQVVESGGGLVQAGGSLRLSCAASGSIFSINAMGWYRQAPGKEREVVAAISNGGNTYYEDSVMGRFTISRDNAKGTLYLQMNGLKPEDTAVYYCNADTVVGGGLLTEVWGQGTLVTVSS[human IgG1 Fc with changes not printed]
notes: as for B3
B8: S005-NB144-3 VHH-hFc (Fc fusion)
chain: QLQLVESGGGLVQPGGSLRLSCAASGFTFSSYAMSWYRQAPGKERELVAAITSAGGSTTYADSVKDRFTISRDNAKNTVSLQMNSLKPEDTAVYYCNAYCTGYVCHEGGYDYWGQGTQVTVSS[human IgG1 Fc with changes not printed]
notes: VHH variable region recombined into vector BI3.4-huIgG1 with signal peptide and human IgG1 Fc; no linker between VHH and Fc is stated
B9: S005-NB144-6 VHH-hFc (Fc fusion)
chain: QVQLVESGGGLVQAGGSLRLSCAASGSIFSISVMGWYRQAPGKERETVAVISSGGSTYYADSVKGRFTISRDNAKNTLYLQMNSLKPEDTAVYYCNADFETASGSPLYESWGQGTQVTVSS[human IgG1 Fc with changes not printed]
notes: as for B3

Target: T1, murine CD5-His (Sino Biologicals, Cat. No. 50403-M08H) (murine, UniProt P13379 24-371)
T1 construct: also called murine CD5 protein; not shown: His tag
T1 sequence (looked up): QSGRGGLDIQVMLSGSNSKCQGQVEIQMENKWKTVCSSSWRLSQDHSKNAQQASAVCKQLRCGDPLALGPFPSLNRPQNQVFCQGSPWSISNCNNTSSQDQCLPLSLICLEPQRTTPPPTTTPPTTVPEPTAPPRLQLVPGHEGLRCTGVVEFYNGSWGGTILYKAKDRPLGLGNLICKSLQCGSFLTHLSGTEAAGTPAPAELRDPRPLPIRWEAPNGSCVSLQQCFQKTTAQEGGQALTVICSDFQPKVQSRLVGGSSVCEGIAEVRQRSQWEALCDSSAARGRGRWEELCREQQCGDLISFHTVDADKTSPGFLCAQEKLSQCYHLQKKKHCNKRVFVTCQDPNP
Assay: ELISA on murine CD5-His, antibody 0.001 nM
Description: (§1) The binding activity of the H65 antibody prepared above with human CD5 protein was subjected to ELISA assay. A purchased commercial antigen (human CD5-His) was diluted with PBS to obtain a final concentration of 2 μg/mL, and then added to a 96-well ELISA plate with 100 µL/well. The plate was sealed with a plastic film and incubated at 4° C. over the night, washed twice with PBS in the next day, added with a blocking solution [PBS+2% (w/w) BSA] and blocked at room temperature for 2 h. The blocking solution was drained out, and 100 nM of the H65 antibody or negative control antibody hIgG1 after gradient dilution was added, namely, the obtained product was the antibody Anti-HEL-hIgG1 against hen egg lysozyme (purchased from Biointron, Cat. No. B117901) with 50 μl per well. After incubation for 2 h at 37° C., the plate was washed for 3 times with PBS. A secondary antibody labeled with HRP (horseradish peroxidase) (A0170, purchased from Sigma) was added. After incubation for 2 h at 37° C., the plate was washed for 5 times with PBS. A TMB substrate was added with 50 μL/well and incubated at room temperature for 30 min, then a stop solution (1.0 N HCl) was added with 50 μL/well.
(§2) To assay the species cross-activity of the VHH-hFc, ELISA plates were coated with commercial murine CD5-His (CD5 (Sino Biologicals, Cat. No. 50403-M08H)), and ELISA assays were performed according to the method described in Example 2.2. […] The negative control is hIgG1 and NB145 serves as the positive control (NB145 has been verified to be bound to murine CD5); data in the table are values of OD_{450 nm}.

Row | Binder | OD450 [OD450]
1 | B1 | 0.1
2 | B2 | 0.1
3 | B3 | 0.09
4 | B4 | 0.12
5 | B5 | 0.09
6 | B6 | 0.12
7 | B7 | 0.09
8 | B8 | 0.11
9 | B9 | 0.09

Target: T1, murine CD5-His (Sino Biologicals, Cat. …)
Assay: ELISA on coated murine CD5-His
Description: as §1, §2

Row | Binder | binding result
10 | B1 | no binding (tested: 100 nM)
11 | B2 | no binding (tested: 100 nM)
12 | B3 | no binding (tested: 100 nM)
13 | B4 | no binding (tested: 100 nM)
14 | B5 | no binding (tested: 100 nM)
15 | B6 | no binding (tested: 100 nM)
16 | B7 | no binding (tested: 100 nM)
17 | B8 | no binding (tested: 100 nM)
18 | B9 | no binding (tested: 100 nM)

Target: T1, murine CD5-His (Sino Biologicals, Cat. …)
Assay: ELISA on murine CD5-His, antibody 1.00 nM
Description: as §1, §2

Row | Binder | OD450 [OD450]
19 | B1 | 0.11
20 | B2 | 0.1
21 | B3 | 0.08
22 | B4 | 0.11
23 | B5 | 0.09
24 | B6 | 0.12
25 | B7 | 0.08
26 | B8 | 0.11
27 | B9 | 0.1

Target: T1, murine CD5-His (Sino Biologicals, Cat. …)
Assay: ELISA on murine CD5-His, antibody 0.10 nM
Description: as §1, §2

Row | Binder | OD450 [OD450]
28 | B1 | 0.1
29 | B2 | 0.1
30 | B3 | 0.09
31 | B4 | 0.11
32 | B5 | 0.09
33 | B6 | 0.12
34 | B7 | 0.09
35 | B8 | 0.1
36 | B9 | 0.09

Target: T1, murine CD5-His (Sino Biologicals, Cat. …)
Assay: ELISA on murine CD5-His, antibody 10.00 nM
Description: as §1, §2

Row | Binder | OD450 [OD450]
37 | B1 | 0.1
38 | B2 | 0.1
39 | B3 | 0.09
40 | B4 | 0.11
41 | B5 | 0.11
42 | B6 | 0.12
43 | B7 | 0.09
44 | B8 | 0.1
45 | B9 | 0.09

Target: T1, murine CD5-His (Sino Biologicals, Cat. …)
Assay: ELISA on murine CD5-His, antibody 100.00 nM
Description: as §1, §2

Row | Binder | OD450 [OD450]
46 | B1 | 0.11
47 | B2 | 0.11
48 | B3 | 0.11
49 | B4 | 0.12
50 | B5 | 0.11
51 | B6 | 0.12
52 | B7 | 0.11
53 | B8 | 0.11
54 | B9 | 0.11

Target: T2, monkey CD5, full length, on HEK293T cells (monkey)
T2 construct: also called HEK293T-monkey CD5
T2 chain: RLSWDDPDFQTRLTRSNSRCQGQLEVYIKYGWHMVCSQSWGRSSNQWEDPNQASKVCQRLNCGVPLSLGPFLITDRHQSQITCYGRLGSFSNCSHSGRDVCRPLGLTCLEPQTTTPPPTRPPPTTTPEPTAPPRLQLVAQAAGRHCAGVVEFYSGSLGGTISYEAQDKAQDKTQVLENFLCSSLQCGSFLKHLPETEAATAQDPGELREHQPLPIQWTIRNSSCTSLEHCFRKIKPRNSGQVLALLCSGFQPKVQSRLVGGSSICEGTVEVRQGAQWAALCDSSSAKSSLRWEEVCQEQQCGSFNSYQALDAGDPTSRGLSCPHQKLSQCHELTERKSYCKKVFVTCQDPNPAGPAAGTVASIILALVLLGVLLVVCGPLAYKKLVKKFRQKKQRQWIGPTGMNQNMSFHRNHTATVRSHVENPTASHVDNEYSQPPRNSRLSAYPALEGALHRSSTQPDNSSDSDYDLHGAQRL
Assay: FACS on HEK293T-monkey CD5 cells
Excerpt: The desired cells were expanded to a logarithmic growth phase in a T-75 cell culture flask. Adherent cells CHO-K1-human CD5 were removed from the culture medium by pipetting, and the cells were washed twice with a PBS buffer, digested with trypsin, and washed twice with a PBS buffer again after the digestion was stopped. For suspension cells Jurkat, the medium supernatant was discarded by direct centrifugation, and the cell pellet was washed twice with PBS. After the cells obtained in the last step were subjected to cell counting, the cell pellet was resuspended to 2×10⁶ cells/mL with a blocking solution [PBS+2% (w/w) BSA] and added to a 96-well FACS reaction plate with 50 μL/well. The VHH-hFc or control antibody was added with 50 μL/well, and the plate was incubated on ice for 2 h. […] After the plate was centrifuged and washed for 5 times with a PBS buffer, the results were assayed and analyzed by FACS (FACS Canto™, purchased from BD Biosciences). Data analysis was performed by software (BD FACSDiva) to obtain the mean fluorescence intensity (MFI) of the cells. Analysis was then performed by software (GraphPad Prism8), data were fitted, and EC₅₀ values were calculated. […] The same method was used to assay the binding reactions of 1 nM and 10 nM VHH-hFc antibodies with Jurkat cells and endogenous CD5-negative Raji cells, and to assay the binding reactions of 1 nM and 10 nM VHH-hFc antibodies with CHO-K1 cells and CHO-K1-human CD5.
HEK293T-monkey CD5 cells were subjected to the FACS assay and data analysis according to the method described in Example 4.2.

Row | Binder | EC50 [nM] | Max MFI [MFI] | binding result
55 | B1 | 12.8 | 22900 | –
56 | B2 | 33.2 | 17200 | –
57 | B3 | – | 110 | no binding
58 | B4 | – | 198 | no binding
59 | B5 | – | 114 | no binding
60 | B6 | – | 76 | no binding
61 | B7 | – | 75 | no binding
62 | B8 | – | 76 | no binding
63 | B9 | – | 150 | no binding

Target: T1, murine CD5-His (Sino Biologicals, Cat. …)
Assay: ELISA on murine CD5-His, antibody '0.000' nM as printed
Description: as §1, §2

Row | Binder | OD450 [OD450]
64 | B1 | 0.1
65 | B2 | 0.1
66 | B3 | 0.09
67 | B4 | 0.12
68 | B5 | 0.09
69 | B6 | 0.13
70 | B7 | 0.08
71 | B8 | 0.11
72 | B9 | 0.09
